Test results published in PubChem BioAssay AID1508642 (National Center for Advancing Translational Sciences (NCATS), 2021).
About 200 (0.47%) of roughly 43,000 compounds were called active. Inconclusive results (about 12%) are left out. Calls follow the shape of the dose curve; as a rule, active = well fitted cell-killing curve with a large enough effect; inconclusive = small, poorly fitted or top-dose-only effect, or effect the other way; inactive = flat fitted curve, though single readings scatter. The list shows a part of the results.

assay: Cell viability qHTS assay in S16 Pmp22-F2sN cells; details: S16 Pmp22-F2sN Schwann cells viability, CellTiter-Glo, 24 h; series mostly up to 57.5 µM; activity change, negative = cytotoxicity: at the top concentration; also: nearly all actives have a fitted effect of over 65% in size
How it was run: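 S16 Pmp22-F2sN Schwann cells (500-1,000/well) in phenol-red-free DMEM with 10% FBS received 23 nL compound by pin tool for 24 h at 37 °C. Viability was then read as CellTiter-Glo luminescence after 15 min at room temperature.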
% is scaled to controls: 0 for no effect and ±100 for the full control effect.

Row | SMILES | activity change, negative = cytotoxicity
1 | COc1ccc(Cl)cc1NC(=O)CSc1nccn1-c1ccc(Cl)cc1 | inactive: -3.71%
2 | CCOCN(C(=O)Cn1c(COC)nc2ccccc21)c1c(C)cccc1CC | inactive: 8.9%
3 | COc1ccc(S(=O)(=O)N2Cc3ccccc3CC2C(=O)Nc2cc(Cl)ccc2Cl)cc1 (stereo unspecified) | inactive: -4.01%
4 | COc1ccccc1C(=O)NCc1nc2cccnc2n1Cc1ccc(F)cc1 | inactive: -0.217%
5 | CCc1nn(CC(=O)NCCc2ccc(SC)cc2)c(=O)c2cc3sccc3n12 | inactive: 7.23%
6 | CCCc1cc(=O)n2[nH]c(NCc3c(F)cccc3Cl)nc2n1 | inactive: -5.56%
7 | Cc1ccc(C)c(N2CCN(C(=O)c3cc(C)nc4c3c(C)nn4-c3ccccc3)CC2)c1 | inactive: 5.5%
8 | COc1cc(CN(C(=O)COc2ccc(F)cc2)c2ccccn2)cc(OC)c1OC | inactive: 0.893%
9 | CCOc1ccc(OCC(=O)Nc2ccc(S(=O)(=O)Nc3cc(C)on3)cc2)cc1 | inactive: 1.31%
10 | COc1cc(NC(=O)CCN2CCN(CCO)CC2)cc(OC)c1 | inactive: 3.96%
11 | Cc1ccc(NC(=O)c2ccc(=O)n(CC(=O)Nc3ccccc3)n2)cc1 | inactive: 3.42%
12 | Cn1c(=O)c2sccc2n2c(CCCC(=O)Nc3ccc(Oc4ccccc4)cc3)nnc12 | inactive: -22.4%
13 | CCOC(=O)COc1ccc(-c2nnn(CC(=O)Nc3ccccc3)n2)cc1 | inactive: 8.97%
14 | COc1ccc(N2CCN(S(=O)(=O)c3ccc4c(c3)C(C(C)C)C(=O)N4)CC2)cc1 (stereo unspecified) | inactive: -24.7%
15 | COc1ccc(CNC(=O)CCc2nnc3n(C)c(=O)c4sccc4n23)cc1 | inactive: 17.4%
16 | COC(=O)C1=C(C)N(C(C)C)C(=O)C1(NC(=O)c1ccccc1OC)C(F)(F)F (stereo unspecified) | inactive: 4.72%
17 | COc1ccccc1CNC(=O)C(=O)NCC(c1ccco1)S(=O)(=O)c1ccc(C)cc1 (stereo unspecified) | inactive: -23.8%
18 | Cc1ccccc1CCNC(=O)c1ccc(Cn2c(=O)c3cccn3c3cccnc32)cc1 | inactive: -3.06%
19 | CCc1ccc(NC(=O)c2cc(S(=O)(=O)N3CCCC(C)C3)cn2C)cc1 (stereo unspecified) | inactive: 22.6%
20 | CCOc1cc(-c2nc(-c3ccc(-c4ccccc4)nc3OCC)no2)cc(OCC)c1OCC | inactive: -0.255%
21 | COc1cc(OC)c(NC(=O)c2cnn(-c3ccccc3)c2-n2cccc2)cc1Cl | inactive: 2.99%
22 | O=C(NCc1ccccc1Cl)c1ccccc1NC(=O)c1nsc2ccccc12 | inactive: -1.04%
23 | O=C(CSc1nccn1Cc1ccc(Cl)cc1)Nc1nc2ccccc2s1 | inactive: 9.7%
24 | CCC(=O)N1CCc2cc(Br)cc(S(=O)(=O)Nc3ccccc3C(=O)OC)c21 | inactive: 5.24%

Row | SMILES | activity change, negative = cytotoxicity
25 | CCOC(=O)N1CCN(C(=O)c2ccc3c(c2)N(Cc2ccccc2F)C(=O)c2ccccc2S3(=O)=O)CC1 | inactive: 7.37%
26 | CCOc1ccc(CNC(=O)C2CCN(C(=O)c3ccc(-n4ccc5ccccc54)s3)CC2)cc1 | inactive: 2.04%
27 | CCOc1ccc(Nc2cc(C(=O)NCc3ccccc3Cl)c3ccccc3n2)cc1 | inactive: 4.24%
28 | O=C(Nc1ccc(Br)c(Cl)c1)c1ccc(C(=O)Nc2ccc(Br)c(Cl)c2)cc1 | inactive: -1.08%
29 | CCc1ccc(NC(=O)CSc2nc3c(c(=O)[nH]2)CN(Cc2ccc4c(c2)OCO4)CC3)cc1 | inactive: 3.89%
30 | O=C(COc1ccccc1)NCC(c1ccc(Cl)cc1)N1CCCCC1 (stereo unspecified) | inactive: -0.136%
31 | Cc1ccc(C)c(N2CCN(S(=O)(=O)c3c(C(=O)N4CCC(C)CC4)c(C)n(C)c3C)CC2)c1 | inactive: -8.56%
32 | O=C(CCCc1ccccc1)NC1CC(=O)N(c2cccc(F)c2)C1 (stereo unspecified) | inactive: 1.25%
33 | CC1CCCCN1CCCNC(=O)CN1C(=O)c2cccnc2Oc2ccc(Cl)cc21 (stereo unspecified) | inactive: 13.8%
34 | CCOc1ccccc1C1C(C(=O)Nc2ccccc2)=C(C)Nc2nc(SCC(=O)c3ccc(C)cc3)nn21 (stereo unspecified) | inactive: -0.313%
35 | CN(C(=O)CSc1nc(-c2ccccc2)no1)c1ccc(F)cc1 | inactive: 23.4%
36 | COc1ccc(C(=O)c2sc3nc4c(c(C(F)(F)F)c3c2N)CN(C(C)=O)CC4)cc1OC | inactive: -3.8%
37 | O=C(COc1ccccc1)Nc1nnc(S(=O)(=O)Nc2ccccc2)s1 | inactive: -4.61%
38 | Cc1ccc(Cl)cc1N1CCN(S(=O)(=O)c2cn(C)c(C)n2)CC1 | inactive: 13.4%
39 | CCN(Cc1ccccc1)c1ncnc2c1cnn2-c1ccc(F)cc1 | inactive: 2.49%
40 | CCOc1ccccc1NC(=O)Nc1nnc(N2CCCC(C)C2)s1 (stereo unspecified) | inactive: -17.6%
41 | O=C(c1ccc(Cl)cc1)N1CCN(CCc2ccncc2)CC1 | inactive: 16.1%
42 | CCc1ccccc1N1C(=O)CN(S(=O)(=O)CC)CC1(C)C(=O)NC1CCCCC1 (stereo unspecified) | inactive: 4.22%
43 | CCC(=O)OC1=C(C(C)=O)N(Cc2ccccc2)S(=O)(=O)c2ccccc21 | inactive: 1.87%
44 | COc1ccc(C(=O)NCc2ccc3c(c2)CCN3C(C)=O)c(OC)c1 | inactive: -3.21%
45 | Cc1ccccc1NC(=O)C1CCN(S(=O)(=O)c2c(C)noc2/C=C/c2ccco2)CC1 | inactive: -11.1%
46 | CCC(=O)N1CCc2cc(CNC(=O)c3cccc(N(C)C)c3)ccc21 | inactive: 7.05%
47 | COc1ccc(NC(=O)C2CCCN(c3ncnc4onc(C)c34)C2)cc1OC (stereo unspecified) | inactive: -3.71%
48 | COc1ccc(-c2cc(C(=O)N3CCCCC3C)no2)cc1OC (stereo unspecified) | inactive: -3.49%

Row | SMILES | activity change, negative = cytotoxicity
49 | CCOc1ccc(OCC)c(NC(=O)c2nnn(CC(=O)Nc3cc(Cl)ccc3OC)c2N)c1 | inactive: 14.3%
50 | COc1ccc(S(=O)(=O)c2c(O)c(C)cc(NC(=O)c3ccccc3)c2C(C)C)cc1 | inactive: 16.9%
51 | Cc1cccc(-c2nnc(SCC(=O)N3CCCCC3)o2)c1 | inactive: 2.1%
52 | O=C(Nc1ccccc1F)c1oc2ccccc2c1NC(=O)c1c(F)cccc1F | inactive: -1.07%
53 | Cc1cccn2c(=O)cc(COc3cccc(NC(=O)c4cccc(Cl)c4)c3)nc12 | inactive: 8.18%
54 | CSc1nnc2n(-c3cccc(C)c3)c(=O)c3c4c(sc3n12)CCCC4 | inactive: 13.8%
55 | CCOc1ccc(-c2nnc(SCC(=O)Nc3cc(C)ccc3OC)o2)cc1 | inactive: 3.58%
56 | CC(C)c1ccc(NC(=O)Cn2c3ncccc3c(=O)n2-c2ccccc2)cc1 | inactive: 9%
57 | Cc1c(C(=O)Nc2cccc(-c3nc4ccccc4s3)c2)oc2ccc(F)cc12 | inactive: 7.9%
58 | COc1cc(-c2nc(C(N)=O)c3c(n2)n(-c2cccc(C)c2)c(=O)n3C)cc(OC)c1OC | inactive: 2.34%
59 | Cc1ccc(CNC(=O)c2nn(C)c3c2CSc2ccc(C)cc2-3)cc1 | inactive: 2.01%
60 | N#Cc1cccc(NC(=O)C2CCN(c3nc(-c4ccc(Cl)cc4)no3)CC2)c1 | inactive: -0.831%
61 | Cc1ccc(CCNC(=O)CSCc2nc(-c3ccc(C)cc3)oc2C)cc1 | inactive: -27%
62 | COC(=O)c1ccccc1NC(=O)c1ccc(=O)n(Cc2cccc(C)c2)c1 | inactive: -9.15%
63 | COc1ccc(N2C(N)=C(C#N)C(c3cc(CN4CCOCC4)cs3)C3=C2CCCC3=O)cc1 (stereo unspecified) | inactive: -3.59%
64 | Cc1nc2c(C(=O)NCCc3ccc(Cl)cc3)cnn2c(C)c1Cc1ccc(F)cc1 | inactive: 25.2%
65 | CC(C)NC(=O)C1CCN(C(=O)c2cnn(-c3ccccc3)c2-n2cccc2)CC1 | inactive: -0.692%
66 | Cc1ccc(NS(=O)(=O)c2ccc3c(c2)C(C(C)C)C(=O)N3)cc1C (stereo unspecified) | inactive: -24.5%
67 | CC(C)c1ccc(OCC(=O)NCC(c2ccc(Cl)cc2)N2CCOCC2)cc1 (stereo unspecified) | inactive: -15.1%
68 | CCOC(=O)C1=C(CN2CCN(C)CC2)NC(=O)NC1c1ccc(F)cc1 (stereo unspecified) | inactive: 17.4%
69 | CCCSc1nc2sc3c(c2c(=O)n1-c1ccc(C)c(Cl)c1)CCN(C(C)=O)C3 | inactive: 27.7%
70 | CN(C(=O)c1cc2nc(-c3ccc4c(c3)OCO4)cc(C(F)(F)F)n2n1)c1ccc(OC(F)(F)F)cc1 | inactive: 1.97%
71 | Cn1nc(C(=O)NCCc2ccc(Cl)cc2)c2c1-c1ccccc1SC2 | inactive: -4.59%
72 | COc1ccccc1N1CCN(C(=O)CSc2nc3ccccc3nc2Cc2ccc(C)cc2)CC1 | inactive: 15.4%

Row | SMILES | activity change, negative = cytotoxicity
73 | COc1cc(NS(=O)(=O)c2cc(Br)cc3c2N(C(=O)C2CC2)CC3)cc(OC)c1 | inactive: -18.7%
74 | CCS(=O)(=O)c1cccc(C(=O)Nc2ccc(-c3nc4ccccc4s3)c(O)c2)c1 | inactive: 9.24%
75 | COc1ccc(-c2csc(-c3c(N)c(C(=O)c4ccccc4)n4ccccc34)n2)cc1OC | inactive: -25.5%
76 | Cc1ccc(CN2CCN(C3CCN(S(=O)(=O)N(C)C)CC3)C(=O)C2=O)cc1 | inactive: 15.7%
77 | CC1CCN(C(=O)Cn2c(SCC(=O)Nc3ccc(F)cc3)nc3ccccc32)CC1 | inactive: 8.01%
78 | COc1ccc(OC)c(CNC(=O)CSc2c3c(nc4cc(Cl)ccc24)CCCC3)c1 | inactive: -28.2%
79 | CCN(CCCNC(=O)c1nn(-c2ccc(OC)c(Cl)c2)c(=O)c2c1c1ccccc1n2C)c1ccccc1 | inactive: 9.9%
80 | Cc1ccc(CCNC(=O)CN(c2ccc(C(C)C)cc2)S(=O)(=O)c2c(C)nn(C)c2C)cc1 | inactive: -16.6%
81 | CCOC(=O)c1c(NC(=O)c2ccc(S(=O)(=O)N(CC)CC)cc2)sc2c1CCCCC2 | inactive: 8.4%
82 | Cc1ccc(C(=O)N2CCCCC2CCN2CCCCC2)cc1 (stereo unspecified) | inactive: 11.4%
83 | O=C(NCCC1=CCCCC1)c1ccc2c(c1)N(Cc1ccccc1)C(=O)c1ccccc1S2=O (stereo unspecified) | inactive: -8.96%
84 | CCn1c(SCC(=O)Nc2c(C)cccc2C)nnc1-c1nonc1NC(C)=O | inactive: -4.6%
85 | Cc1cccc(C(=O)N(Cc2ccccc2F)C2CCS(=O)(=O)C2)c1 (stereo unspecified) | inactive: 0.337%
86 | COC(=O)c1c(NC(=O)COc2cccc(C(F)(F)F)c2)sc2c1CCCC2 | inactive: 9.11%
87 | COc1ccc(Cc2nc3c4cnn(-c5cccc(F)c5)c4ncn3n2)cc1 | inactive: 7.75%
88 | COc1cc(C(=O)N2CCN(C(=O)COc3cccc(C)c3)CC2)cc(OC)c1OC | inactive: 8.68%
89 | COc1ccc(N2CCN(C(=O)c3cnn(-c4ccc(OC)cc4)c3C3CCN(C(=O)OC(C)(C)C)CC3)CC2)cc1 | inactive: -0.683%
90 | CCN(CC)c1ccc(NS(=O)(=O)c2cc(-c3cc(C)no3)ccc2C)c(C)c1 | inactive: -18.7%
91 | CCCNC(=O)N1CCCN(S(=O)(=O)c2ccc3c(ccn3CC)c2)CC1 | inactive: 0.0531%
92 | CCCCOc1cccc(C(=O)N2CCN(CCc3ccncc3)CC2)c1 | inactive: -2.81%
93 | COc1ccc(OC)c(NC(=O)Cn2c(=O)cc(C)c3c(C)nn(-c4cccc(Cl)c4C)c32)c1 | inactive: 5.93%
94 | O=C(CN1C(=O)CCSc2ccccc21)Nc1ccc(C(F)(F)F)cc1 | inactive: -0.54%
95 | Cc1ccc(CNC(=O)C2CCCN(c3ncnc4onc(-c5ccc(F)cc5)c34)C2)cc1 (stereo unspecified) | inactive: 6.42%
96 | CCCN1Cc2cccc(C(=O)Nc3ccccc3C(=O)OC)c2C1=O | inactive: -19.1%
